From PubChem BioAssay AID686970 (National Center for Advancing Translational Sciences (NCATS), 2013)
Out of some 360,000 compounds screened, about 6,000 (1.7%) were called active. This list was built around the results that the source calls inconclusive (neither active nor inactive); the mix of calls is not that of the screen. The call rests on the fitted dose curve; in most records, active means well fitted cell-killing curve with a large enough effect; inconclusive means small, poorly fitted or top-dose-only effect, or effect the other way; inactive means flat fitted curve, though single readings scatter. Potencies of inconclusive entries are left out as doubtful fits.

test: qHTS for induction of synthetic lethality in tumor cells producing 2HG: qHTS for the HT-1080-NT fibrosarcoma cell line; conditions: HT-1080-NT fibrosarcoma viability, CellTiter-Glo ATP luminescence, 48 h; activity, negative = less viability: at 46.1 µM (top of the series) unless noted;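 further: NT is the 2HG producing partner of a matched IDH1 knockdown line; nearly all actives have a fitted effect of over 55% in size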;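 on activity, negative = less viability: 0% = DMSO-treated cells and -100% = media-only wells without cells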
Summary of the method: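 A 48-hour cytotoxicity screen used HT-1080-NT cells plated 2 hours before compound delivery. ATP-based CellTiter-Glo luminescence measured viability, normalized to DMSO and no-cell controls.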
Potency means the concentration at half of the fitted maximal effect; tags describe the fitted curve by direction and shape.

| Structure (SMILES) | Potency | activity, negative = less viability |
| --- | --- | --- |
| CC12CCC(C(=O)Nc3cccc(Cl)c3Cl)([C@H](Br)C1=O)C2(C)C (stereo not given in full) | inconclusive [rising, single point] |  |
| COc1cccc(-c2cc(C(F)(F)F)n3ncc(C(=O)NCC4CCCO4)c3n2)c1 (stereo not given) | inconclusive [cytotoxic, single point] |  |
| O=C(CSc1nc2[nH]c(=O)cc(O)c2s1)Nc1nncs1 |  | inactive: 19.1% |
| COc1cccc(Nc2nc(-c3ccc4c(c3)OCCO4)cs2)c1 |  | inconclusive: -30.7% [cytotoxic] |
| CCc1nccn1S(=O)(=O)c1ccccc1[N+](=O)[O-] |  | inactive: 2.16% |
| O=c1[nH]c(CSc2nnc(Cc3ccccc3)o2)nc2ccccc12 | inconclusive [cytotoxic, single point] |  |
| CCOC(=O)c1cc(NC(=O)Nc2cc(C)ccn2)c(C)nc1C | inconclusive [rising, partial curve] |  |
| N#Cc1ccc2[nH]cc(CCO)c2c1 |  | inactive: 18.5% |
| CCCc1nc(Nc2nc3ccccc3o2)nc(C)c1C(=O)OCC |  | inconclusive: -20.7% [cytotoxic] |
| O=C(NCC1CCCO1)c1ccccc1-c1nc(-c2ccccc2Cl)no1 (stereo not given) | inconclusive [cytotoxic, single point] |  |
| O=C(C1CCCO1)N1CCN(C(=S)Nc2ccc(Cl)cc2Cl)CC1 (stereo not given) | inconclusive [cytotoxic, single point] |  |
| Cc1c(C(=O)NCCSc2ccc(Cl)cc2)cccc1[N+](=O)[O-] |  | inactive: -2.19% |
| CCn1c(-c2ccc(Cl)cc2)n[nH]c1=S | inconclusive [cytotoxic, single point] |  |
| O=C(N/N=C/c1c[nH]c2ccccc12)c1cc(-c2ccc(-c3ccccc3)cc2)n[nH]1 | inconclusive [cytotoxic, single point] |  |
| CC(C)C[C@H](NC(=O)c1nc[nH]c1C(=O)NCCNC(=O)OC(C)(C)C)C(=O)CNCCNC(=O)c1[nH]cnc1C(=O)N[C@@H](C)C(=O)OC(C)(C)C | inconclusive [rising, single point] |  |
| Cc1ccc(S(=O)(=O)N(C)c2ccc(OCC(=O)Nc3ccc(C(=O)N(C)C)cc3)cc2)cc1C |  | inactive: 0.577% |
| CCCN(CC(=O)Nc1ccccc1C)C(=O)CCl | active: 8.2 µM |  |
| COc1ccccc1NC(=O)CN1CC(=O)Nc2ccccc21 |  | inactive: 9.54% |
| CCC1(c2ccccc2)NC(=O)N(CC(=O)NNC(=O)c2ccoc2C)C1=O (stereo not given) |  | inactive: 10.4% |
| CCC(=O)N1N=C(c2c(-c3ccccc3)c3cc(Cl)ccc3[nH]c2=O)CC1c1ccco1 (stereo not given) | inconclusive [cytotoxic, single point] |  |
